{
  "source": "paper PMC4336329",
  "about": "(PLoS ONE, 2015)",
  "note": "The campaign covered roughly 310,000 compounds. About 14,000 (4.5%) showed an effect of 50% or more. Effects have a minus sign here. This is one part of the list.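 Also: peak tail current of the secondary pulse compared with the same well before compound.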",
  "data": [
    {"target": "human ether-à-go-go-related gene (hERG) potassium channel (human, UniProt Q12809)", "sequence (Q12809 whole entry, looked up)": "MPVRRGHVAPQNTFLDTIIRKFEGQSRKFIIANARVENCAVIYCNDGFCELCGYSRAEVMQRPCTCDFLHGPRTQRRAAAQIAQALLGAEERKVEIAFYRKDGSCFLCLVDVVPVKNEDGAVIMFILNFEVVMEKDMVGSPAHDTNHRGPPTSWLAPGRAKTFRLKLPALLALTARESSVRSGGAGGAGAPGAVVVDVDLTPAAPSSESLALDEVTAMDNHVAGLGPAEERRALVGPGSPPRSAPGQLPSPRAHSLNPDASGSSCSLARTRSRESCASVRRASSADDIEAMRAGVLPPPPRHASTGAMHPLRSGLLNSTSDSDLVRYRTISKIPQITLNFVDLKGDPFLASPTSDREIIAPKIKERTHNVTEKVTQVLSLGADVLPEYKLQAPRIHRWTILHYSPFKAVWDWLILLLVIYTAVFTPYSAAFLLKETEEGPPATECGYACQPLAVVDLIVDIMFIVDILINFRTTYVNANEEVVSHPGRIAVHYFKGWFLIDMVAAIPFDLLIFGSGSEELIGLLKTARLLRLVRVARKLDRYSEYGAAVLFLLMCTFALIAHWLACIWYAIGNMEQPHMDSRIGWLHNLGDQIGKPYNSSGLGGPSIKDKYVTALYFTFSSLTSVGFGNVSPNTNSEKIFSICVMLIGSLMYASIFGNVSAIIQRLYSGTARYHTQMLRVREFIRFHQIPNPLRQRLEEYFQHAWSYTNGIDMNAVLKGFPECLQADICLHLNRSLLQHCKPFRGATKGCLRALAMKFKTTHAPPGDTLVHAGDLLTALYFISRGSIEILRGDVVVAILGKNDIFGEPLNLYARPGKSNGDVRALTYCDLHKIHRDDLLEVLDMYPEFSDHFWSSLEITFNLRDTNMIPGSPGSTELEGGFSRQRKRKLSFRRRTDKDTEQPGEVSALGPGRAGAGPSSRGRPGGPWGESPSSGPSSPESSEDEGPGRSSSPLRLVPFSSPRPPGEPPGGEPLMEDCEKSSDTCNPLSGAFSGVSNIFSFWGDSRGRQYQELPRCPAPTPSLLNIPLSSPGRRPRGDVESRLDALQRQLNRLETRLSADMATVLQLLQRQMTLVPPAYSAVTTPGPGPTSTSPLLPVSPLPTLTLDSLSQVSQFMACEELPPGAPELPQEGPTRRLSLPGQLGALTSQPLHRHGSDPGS", "experiment": "primary screen, population patch clamp on CHO cells stably expressing hERG", "units": {"hERG current change (%, negative = inhibition) at 10uM": "%"}, "values": [
      {"compound": "CC(=O)c1cccc(N(CC(=O)Nc2ccc(F)cc2)S(C)(=O)=O)c1", "hERG current change (%, negative = inhibition) at 10uM": -14.9},
      {"compound": "COc1ccc(C(=O)NCCc2c[nH]c3ccc(OC)cc23)cc1", "hERG current change (%, negative = inhibition) at 10uM": 2.24},
      {"compound": "COc1cc(N)c(Cl)cc1NC(=O)c1ccccc1", "hERG current change (%, negative = inhibition) at 10uM": 12.3},
      {"compound": "CCSc1ccc(-c2cccc([N+](=O)[O-])c2)nn1", "hERG current change (%, negative = inhibition) at 10uM": 2.56},
      {"compound": "Cc1ccc(N(C)S(=O)(=O)c2ccc3c(c2)NC(=O)C(C)S3)cc1", "note": "(centres unmarked)", "hERG current change (%, negative = inhibition) at 10uM": 1.32},
      {"compound": "COc1cc(C=O)ccc1OCc1ccc(Cl)nc1", "hERG current change (%, negative = inhibition) at 10uM": 14.2},
      {"compound": "CCOc1ccc(NC(=O)CCNC(=O)Cn2ccc3ccccc3c2=O)cc1", "hERG current change (%, negative = inhibition) at 10uM": 23.2},
      {"compound": "CCC1=NN2C(=N)/C(=C\\c3cccn3-c3ccc(C)cc3C)C(=O)N=C2S1", "hERG current change (%, negative = inhibition) at 10uM": -5.33},
      {"compound": "CCCC1=C(C(=O)OCC)C(c2c(C)nn(-c3ccccc3)c2Cl)C(C#N)=C(N)O1", "note": "(centres unmarked)", "hERG current change (%, negative = inhibition) at 10uM": -16.1},
      {"compound": "CC1CCC(C(=O)NC(C(=O)N2CCc3ccccc3C2)C(C)C)CC1", "note": "(centres unmarked)", "hERG current change (%, negative = inhibition) at 10uM": 0.394},
      {"compound": "CC(=O)N1CC23C=CC(CC2CC12CCCCCC2)O3", "note": "(centres unmarked)", "hERG current change (%, negative = inhibition) at 10uM": 2.17},
      {"compound": "Cc1nn(-c2ccccc2)c(Cl)c1/C=N/NC(=O)c1cccnc1", "hERG current change (%, negative = inhibition) at 10uM": -8.73},
      {"compound": "O=C(CN1C(=O)S/C(=C\\c2ccc(O)c([N+](=O)[O-])c2)C1=O)Nc1ccc(N2CCOCC2)cc1", "hERG current change (%, negative = inhibition) at 10uM": 12.2},
      {"compound": "CC(C)C[C@@H](CO)N1CCN(Cc2ccc([N+](=O)[O-])cc2)CCC1=O", "hERG current change (%, negative = inhibition) at 10uM": -26.5},
      {"compound": "C=CCN1C(=O)c2ccc(C(=O)N(CCOC)c3c(N)n(CCCC)c(=O)[nH]c3=O)cc2C1=O", "hERG current change (%, negative = inhibition) at 10uM": 3.88},
      {"compound": "CN1CCN(c2nc3cc(C(F)(F)F)ccc3n3cccc23)CC1.O=C(O)/C=C\\C(=O)O", "hERG current change (%, negative = inhibition) at 10uM": -41.7},
      {"compound": "CCNS(=O)(=O)c1ccc(NC(=S)N2CCc3ccccc32)cc1", "hERG current change (%, negative = inhibition) at 10uM": 22.9},
      {"compound": "Cc1ccc(CNC(=O)CSc2ccsc2[N+](=O)[O-])cc1", "hERG current change (%, negative = inhibition) at 10uM": -4.87},
      {"compound": "CCN(CC)CC(=O)Nc1ccccc1SCC(=O)Nc1ccsc1C(=O)OC", "hERG current change (%, negative = inhibition) at 10uM": -22.7},
      {"compound": "COCCN(C(=O)CCC(=O)Nc1nccs1)C(C(=O)NC(C)(C)C)c1ccc(F)cc1", "note": "(centres unmarked)", "hERG current change (%, negative = inhibition) at 10uM": -1.98},
      {"compound": "Cc1ccc(S(=O)(=O)N2CCCCC2)cc1C(=O)NCCC1=CCCCC1", "hERG current change (%, negative = inhibition) at 10uM": -8.73},
      {"compound": "Cc1ccccc1Cn1nc(C)c(NC(=O)c2cc3n(n2)C(C(F)F)CC(C(F)F)N3)c1C", "note": "(centres unmarked)", "hERG current change (%, negative = inhibition) at 10uM": -2.7},
      {"compound": "Cc1cccc(NC(=O)CSc2nc3[nH]ncc3c(=O)[nH]2)c1", "hERG current change (%, negative = inhibition) at 10uM": 8.61}
    ]}
  ]
}
